Publication PMC4336329 (PLoS ONE, 2015)
The campaign covered roughly 310,000 compounds. About 14,000 (4.5%) showed an effect of 50% or more. Effects have a minus sign here. The list shows a part of the results.

molecular target: human ether-à-go-go-related gene (hERG) potassium channel (human, UniProt Q12809); test: primary screen, population patch clamp on CHO cells stably expressing hERG
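Further: peak tail current of the secondary pulse compared with the same well before compound.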

Sequence of human ether-à-go-go-related gene (hERG) potassium channel (Q12809 whole entry, looked up): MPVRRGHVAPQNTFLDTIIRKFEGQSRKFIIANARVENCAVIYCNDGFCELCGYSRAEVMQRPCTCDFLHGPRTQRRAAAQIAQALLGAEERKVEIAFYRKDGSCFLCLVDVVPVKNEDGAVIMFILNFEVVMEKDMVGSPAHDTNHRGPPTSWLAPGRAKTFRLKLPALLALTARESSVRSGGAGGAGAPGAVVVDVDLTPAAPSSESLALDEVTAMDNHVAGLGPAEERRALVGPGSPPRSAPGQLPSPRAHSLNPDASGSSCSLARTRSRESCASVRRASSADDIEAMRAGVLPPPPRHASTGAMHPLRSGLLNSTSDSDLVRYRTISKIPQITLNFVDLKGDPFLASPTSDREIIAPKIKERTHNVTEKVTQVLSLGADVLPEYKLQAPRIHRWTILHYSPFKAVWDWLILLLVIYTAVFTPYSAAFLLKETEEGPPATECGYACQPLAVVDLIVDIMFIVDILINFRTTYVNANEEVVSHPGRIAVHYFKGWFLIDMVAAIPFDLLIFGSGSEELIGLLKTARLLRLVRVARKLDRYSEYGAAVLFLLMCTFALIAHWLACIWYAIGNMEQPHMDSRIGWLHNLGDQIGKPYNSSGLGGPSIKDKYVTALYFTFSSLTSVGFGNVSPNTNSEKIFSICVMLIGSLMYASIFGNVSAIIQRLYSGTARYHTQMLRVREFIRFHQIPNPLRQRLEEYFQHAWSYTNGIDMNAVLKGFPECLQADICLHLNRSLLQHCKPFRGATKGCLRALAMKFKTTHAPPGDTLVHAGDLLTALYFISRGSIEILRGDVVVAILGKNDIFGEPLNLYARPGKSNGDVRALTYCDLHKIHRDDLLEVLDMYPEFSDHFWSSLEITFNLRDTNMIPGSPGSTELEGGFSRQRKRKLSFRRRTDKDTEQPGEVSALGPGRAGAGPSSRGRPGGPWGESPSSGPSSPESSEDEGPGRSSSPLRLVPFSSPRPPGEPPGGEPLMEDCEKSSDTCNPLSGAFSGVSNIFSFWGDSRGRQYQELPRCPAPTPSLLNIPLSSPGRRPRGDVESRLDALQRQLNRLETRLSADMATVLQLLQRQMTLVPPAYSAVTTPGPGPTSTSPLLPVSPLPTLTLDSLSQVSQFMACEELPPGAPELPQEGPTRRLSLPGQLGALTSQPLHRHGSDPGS

Compound | hERG current change (%, negative = inhibition) at 10uM [%]
Cc1cnc(NC(=O)c2c(Cl)cnn2C)s1 | 19
COc1ccccc1C(=O)CSc1cccc[n+]1[O-] | 9.12
COc1ccc(C2C3C(=O)N(Cc4ccccc4)C(=O)C3ON2c2ccccc2)c(OC)c1OC (stereo not shown) | 1.47
Cc1cc(NC(=O)c2cc(-c3cccs3)on2)no1 | -4.68
COc1ccccc1CNC(=O)C1Cc2cc(S(=O)(=O)N3CCCC3)ccc2N1C(C)=O (stereo not shown) | 11
O=C(COc1ccccc1)NCCSc1ccccc1 | -5.26
CC(C)=CC(=O)OCC(=O)Nc1ccc(F)cc1Cl | -0.186
COc1ccc(C(=O)Nn2c(SCC(=O)c3ccccc3)nc3ccccc3c2=O)cc1 | -15.9
CCN(CC)CCNC(=O)c1ccc(Cl)c(S(=O)(=O)N2CCCCCC2)c1.Cl | -67.4
CC(C)NC(=O)C(=O)Nc1cc2c3c(c1)CCC(=O)N3CCC2 | 11.4
CN(c1ccc(OCC(=O)OCC(=O)Nc2cccc([N+](=O)[O-])c2)cc1)S(=O)(=O)c1ccc(F)cc1 | -5.67
COc1ccc(C2=NS(=O)(=O)N(C)C(C(=O)NC(C)c3ccccc3)=C2)cc1 (stereo not shown) | -23.8
Cc1nc(Oc2ccccc2)c2oc3ccccc3c2n1 | 13.3
O=C(Cc1c[nH]c2ccccc12)NCc1ccc2c(c1)OCO2 | 19.4
CCC1(CC)NC(=O)N(CC(=O)OCC(=O)NC(=O)c2ccc(Cl)cc2)C1=O | -6.39
COc1ccc(/C=N/NC(=O)c2cccc([N+](=O)[O-])c2)c2ccccc12 | 16.2
Cc1c(Br)c(-c2n[nH]c(=S)n2Cc2ccco2)nn1C | 13.4
CCc1noc(N)c1C(=O)Nc1ccc(F)c(Cl)c1 | 5.45
O=C(COc1ccc(/C=N/NC(=O)CSCc2ccc([N+](=O)[O-])cc2)cc1)NCc1ccco1 | -23.7
Cc1cccc(NC(=O)c2ccc(OCc3c(C)noc3C)cc2)c1 | -4.24
COc1ccc(/C=C/CN2CCN(CC(C)C)C(CCO)C2)cc1 (stereo not shown) | -52.2
O=C(CCSCCC(=O)NCc1cccs1)NCc1cccs1 | 6.75

Compound | hERG current change (%, negative = inhibition) at 10uM [%]
Cc1csc(NC(=O)CSc2nnc(C)c(=O)n2N)n1 | 18.2
Cc1c(C(=O)N2CCCCC2)sc(NC(=O)C2CC2)c1C#N | -2.5
COc1ccc(C(=O)NCCc2nnc3ccc(SCC(=O)N4CCCCC4)nn23)cc1 | 5.54
CCCSc1nnc(NC(=O)CSc2nc3[nH]c(=O)cc(O)c3s2)s1 | 12.5
COC(=O)c1cc(-c2ccc(OC)cc2F)nc2nc(SC)[nH]c(=O)c12 | 15.1
O=C(NC(=S)Nc1ccc(CN2CCOCC2)cc1)c1ccc(-c2cccc(Cl)c2)o1 | 7.11
O=C(NCCc1ccncc1)C(F)(F)F | 18
COC(=O)c1ccc(N2C(=O)CC(SCC(=O)Nc3ccc(OC)cc3)C2=O)cc1 (stereo not shown) | 2.95
O=C(COC(=O)c1n[nH]c(=O)c2ccccc12)NC1CCCCC1 | -0.0274
Cc1cc(C)n(Cc2ccccc2)c(=O)c1S(=O)(=O)c1ccccc1 | 2.93
O=C(COC(=O)c1ccc(Cl)nc1)Nc1ncc(Cl)cc1Cl | 6.21
CC(=O)N1CCN(C(=O)c2ccc(-n3c(C)ccc3C)cc2)CC1 | -1.54
CC1CCN(S(=O)(=O)c2ccc(F)c(C(=O)O)c2)CC1 | 4.7
O=C(CSc1nnc(Nc2ccccc2)s1)NN1C(=O)NC2(CCCCC2)C1=O | -1.61
CC1CN(c2ccc([N+](=O)[O-])c(NCCOc3ccc(Cl)cc3)c2)CC(C)N1 (stereo not shown) | -47.9
Cc1cccc(/C=N/NC(=O)Cc2cccs2)c1 | 2.55
Cc1n[nH]c(=O)c2c(NC(=O)CSc3nn(-c4ccccc4)c(=S)s3)oc(C)c12 | -1.58
O=C(CSc1ncn[nH]1)NNC(=O)c1ccccc1 | -8.54
Cl.O=C(CCCN1CCOC(c2ccccc2)C1)c1ccc(F)cc1 (stereo not shown) | -60.7
C[C@H](NC(=O)c1[nH]cnc1C(=O)Nc1cccc(Cl)c1)c1ccccc1 | 16.3
O=C(C1CCN(S(=O)(=O)c2cccs2)CC1)N1CCCCCC1 | -5.92
COc1ccccc1N1CCN(C(=O)CSc2nc3ccccc3[nH]2)CC1 | -7.19

Compound | hERG current change (%, negative = inhibition) at 10uM [%]
COC(=O)c1ccc(NC(=S)NC(=O)c2cc(-c3ccccc3)nc3ccccc23)cc1 | 10.8
CC(CCCC(C)(C)O)NCCO (stereo not shown) | 12.1
CCCOc1ccc(CNC(=O)CCC(=O)n2ncc3cc(C)ccc32)cc1 | 9.25
Cc1cccc(NC(=O)c2cccc(S(=O)(=O)N3CCc4ccccc4C3)c2)n1 | -15.1
C=CCn1c(CCNC(=O)c2cccs2)nnc1SCC(=O)c1cccc([N+](=O)[O-])c1 | -33.6
CN(C)CCn1c2c(c(SCC(=O)N3CCc4ccccc43)nc1=O)CCCC2 | -44.7
CCOc1ccc(CN(C)c2ccc(S(=O)(=O)N3CCN(C)CC3)cc2[N+](=O)[O-])cc1OC | -18.8
COc1cccc(CNC(=O)Cc2ccc(NC(=O)C3=C(C)OCCS3)cc2)c1 | 3.87
CCC(=Nc1cc(OC)ccc1OC)c1c(O)[nH]c(=O)[nH]c1=O | 4.56
O=C1Nc2ccccc2/C1=C/C(=O)c1cccs1 | 1.73
COCCNC(=O)/C(C#N)=C/c1ccc(N2CCOCC2)o1 | 9.87
CCCN(CCC)CCCNC(=O)CCNS(=O)(=O)c1ccc(Br)cc1 | -21.1
CC(=O)NC(Cc1ccccc1F)C(=O)NC1CCN(C(=O)c2cnccn2)CC1 (stereo not shown) | 10.6
NC(=O)c1ccsc1NC(=O)COC(=O)Cc1c[nH]c2ccccc12 | -1.19
O=Cc1cn(Cc2ccc([N+](=O)[O-])cc2)c2ccccc12 | -38.9
O=C(NC(CC(=O)N1CCCC(C(F)(F)F)C1)c1ccccc1)c1ccccc1Cl (stereo not shown) | -8.81
O=c1[nH]c(CSc2nnc(-c3ccccc3)n2-c2ccccc2)nc2ccccc12 | 18.1
Cc1ccc(NC(=O)N2CCCC2C(=O)NCc2ccc3c(c2)OCO3)cc1 (stereo not shown) | -2.33
CC(Sc1nnnn1C)C(=O)Nc1ccc2c(c1)OCCO2 (stereo not shown) | 21.5
CCC1(C)Cc2ccccc2C(=S)N1 (stereo not shown) | 10.1
CCOC(=O)c1sc(NC(=O)c2ccc(OC(C)=O)cc2)nc1C | 13.3
CC1=Nc2ccccc2/C1=C/c1sc(=O)n(CC(=O)N2CCCC2)c1O | 13.9

Compound | hERG current change (%, negative = inhibition) at 10uM [%]
COc1ccccc1CNC(=O)CN(c1cccc([N+](=O)[O-])c1)S(C)(=O)=O | -4.16
COc1ccc(N2CC(C(=O)Nc3ccc(S(=O)(=O)N4CCOCC4)cc3)CC2=O)cc1 (stereo not shown) | 13.4
COc1ccc(N=C2C(=O)Nc3c(C)cccc32)cc1 | -3.27
COc1ccc(N(C)C(=O)c2cc3c(s2)-c2ccc(Cl)cc2S(=O)(=O)C3)c(OC)c1 | -58.5
O=C(NCCS(=O)(=O)N1CCN(c2ccc(F)cc2)CC1)C1CC(=O)N(c2ccccc2)C1 (stereo not shown) | -1.74
CCOC(=O)CNC(=O)CCCCCC(=O)NCC(=O)OCC | 7.47
CCN1CCC(N(C)C2CCCCC2)CC1 | -2.12
Cc1cc(-c2nnc(CCC(=O)N3CCN(Cc4cccc(F)c4)CC3)o2)c(C)o1 | -36.2
Cc1c(NC(=S)N/N=C\c2ccccc2O)c(=O)n(-c2ccccc2)n1C | -6.26
CC(=O)N1c2ccc(S(=O)(=O)N(C)c3cc(C)ccc3C)cc2CC1C (stereo not shown) | -8.67
CC(C)(C)NC(=O)Cn1nnc(-c2ccc(S(C)(=O)=O)cc2)n1 | -1.52
Cc1ccc(C(=O)Nc2ccc(O)cc2C(=O)O)cc1 | 19.1
Cc1cc(Cn2ccnc2)c(C)cc1Cn1ccnc1 | -0.954
CC(C)(C)C(=O)NC1=NCCS1 | 15.7
Cc1onc(-c2c(F)cccc2Cl)c1C(=O)NC1CCSC1=O (stereo not shown) | 0.262
CCCNC(=O)C1CCC(CNS(=O)(=O)c2cccc3nsnc23)CC1 (stereo not shown) | 4.95
c1ccc2c(-c3[nH]ncc3CNCCCn3ncc4ccccc43)cccc2c1 | -34.4
Cc1cc(-c2nnnn2-c2ccc(F)cc2)no1 | 18.7
CCCCn1nc(C(=O)N(CC)CC(=O)Nc2c(F)cccc2F)c2ccccc2c1=O | -7.72
CC1Cc2ccccc2N1Cc1cccc(S(=O)(=O)N(C)C)c1 (stereo not shown) | 8.8
Cc1ccc(C2(C(=O)N3CCC(n4nc(-c5ccccc5)oc4=O)CC3)CC2)cc1 | -17
COc1ccc(C2(CNC(=O)c3ccc(OC)c([N+](=O)[O-])c3)CCOCC2)cc1OC | -9.42
